# Reference: PMC4336329 (PLoS ONE, 2015)
# Hit rate of the full screen: of about 310,000 compounds, about 2,200 (0.71%) showed an effect of 50% or more. Effects have a minus sign here. The list shows a part of the results.
# Target: human ether-à-go-go-related gene (hERG) potassium channel (human, UniProt Q12809)
# Assay: primary screen, population patch clamp on CHO cells stably expressing hERG
# human ether-à-go-go-related gene (hERG) potassium channel, sequence (Q12809 whole entry, looked up): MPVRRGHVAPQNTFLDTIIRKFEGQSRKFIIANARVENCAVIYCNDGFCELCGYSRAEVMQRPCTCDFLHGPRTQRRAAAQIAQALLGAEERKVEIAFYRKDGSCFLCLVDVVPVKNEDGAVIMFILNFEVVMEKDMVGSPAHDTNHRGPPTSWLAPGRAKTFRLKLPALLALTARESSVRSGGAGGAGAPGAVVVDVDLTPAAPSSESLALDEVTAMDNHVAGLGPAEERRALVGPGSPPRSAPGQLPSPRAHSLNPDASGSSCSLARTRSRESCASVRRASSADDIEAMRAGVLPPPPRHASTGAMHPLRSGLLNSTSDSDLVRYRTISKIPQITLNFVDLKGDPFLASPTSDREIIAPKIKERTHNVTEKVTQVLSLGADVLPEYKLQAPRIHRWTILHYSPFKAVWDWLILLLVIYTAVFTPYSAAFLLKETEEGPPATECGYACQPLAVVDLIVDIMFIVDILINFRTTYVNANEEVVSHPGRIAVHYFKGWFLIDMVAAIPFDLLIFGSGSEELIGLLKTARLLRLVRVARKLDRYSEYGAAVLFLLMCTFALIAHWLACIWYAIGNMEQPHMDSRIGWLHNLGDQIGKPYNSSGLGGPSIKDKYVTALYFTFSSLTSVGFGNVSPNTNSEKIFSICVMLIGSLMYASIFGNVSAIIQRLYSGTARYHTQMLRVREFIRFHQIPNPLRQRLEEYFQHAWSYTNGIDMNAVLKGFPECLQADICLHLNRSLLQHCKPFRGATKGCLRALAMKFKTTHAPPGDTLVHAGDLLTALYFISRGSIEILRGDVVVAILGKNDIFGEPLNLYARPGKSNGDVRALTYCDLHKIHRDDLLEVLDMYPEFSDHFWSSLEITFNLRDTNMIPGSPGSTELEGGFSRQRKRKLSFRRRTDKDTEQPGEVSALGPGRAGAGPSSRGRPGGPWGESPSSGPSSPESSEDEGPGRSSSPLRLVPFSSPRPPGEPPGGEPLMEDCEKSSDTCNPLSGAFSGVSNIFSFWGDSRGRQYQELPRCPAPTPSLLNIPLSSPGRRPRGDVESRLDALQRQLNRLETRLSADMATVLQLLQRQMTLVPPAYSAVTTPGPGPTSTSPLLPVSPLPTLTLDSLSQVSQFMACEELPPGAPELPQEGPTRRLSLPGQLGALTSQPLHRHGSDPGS
row,SMILES,"hERG current change (%, negative = inhibition) at 1uM [%]"
1,COc1ccc(/C(C)=N/Nc2ccc(C(=O)O)cc2)c(OC)c1.O=S(=O)(O)O,5.22
2,COCCN(C(=O)CC1CCCCC1)c1c(N)n(CC(C)C)c(=O)[nH]c1=O,14.2
3,O=c1c2ccccc2cnn1Cc1n[nH]c(=S)n1-c1ccc(Cl)cc1Cl,5.76
4,Cc1nc(-c2cccc(S(=O)(=O)N3CC(C)CC(C)C3)c2)cs1 (stereo not drawn),14.7
5,COc1ccc(C(=O)Nc2ccc(C(=O)NCC3CCCO3)cc2)c(OC)c1OC (stereo not drawn),15.2
6,COC(=O)Nc1nnc(-c2ccccc2OC)s1,7.37
7,N=c1n(CC(=O)c2ccc(Br)cc2)c2ccccc2n1Cc1ccccc1.[Br-],14.3
8,O=C(COc1ccc(F)cc1)Nc1nc2c(s1)CCCC2,16.7
9,CSc1sc(C(=O)NN)c2c1C1(CCC2)SCCS1,9.09
10,C[C@@H]1C=C(C(=O)N2CCN(C)CC2)O[C@H](OCc2ccc(CO)cc2)C1,18.7
11,O=C(C(=O)N1CCCc2ccccc21)c1cn(CC(=O)N2CCOCC2)c2ccccc12,5.18
12,Cc1ccc(C(=O)NCC(C)(C)N2CCOCC2)s1,4.53
13,CN(C)/C=C1\Cc2ccccc2C1=O,10.6
14,O=C(NCc1ccco1)C(c1ccccc1)N(Cc1cccnc1)C(=O)Cn1nnc2ccccc21 (stereo not drawn),1.5
15,Cc1ccc(S(=O)(=O)Nc2ccccc2C(=O)OC(C)C(=O)Nc2ccc3ccccc3c2)cc1[N+](=O)[O-] (stereo not drawn),8.2
16,CCNc1c([N+](=O)[O-])ncn1C,-3.35
17,Cc1ccsc1/C=N/N1CCN(c2ccccc2)CC1,-2.26
18,COC(=O)c1ccncc1C(=O)Nc1ccc(Oc2ncc(C(F)(F)F)cc2Cl)cc1,9.32
19,C=CCn1c(=O)c(C(=O)Nc2cccnc2)c(O)c2ccccc21,-6.89
20,CCc1ccc(OCC2NCCc3cc(OC)c(OC)cc32)cc1 (stereo not drawn),5.28
21,O=C(O)c1ccc(NC(=O)C(c2ccccc2)c2ccccc2)cc1,15.6
22,C=CCn1cc(C(=O)NCCOC)c(=O)c2cc(S(=O)(=O)N3CCCCCC3)ccc21,-9.03
23,O=C(CSCCN1C(=O)c2ccccc2C1=O)Nc1ccc2ccccc2c1,6.12
24,CCCCC(=O)Nc1ccccc1N1CCN(c2ccccc2)CC1,13.7
